Results on 1 molecule are retold here after article PMC7444511, “Human granulocyte-colony stimulating factor (G-CSF)/stem cell factor (SCF) fusion proteins: design, characterization and activity” (PeerJ, 2020).

Assay [1] has as its target SCF monomer (human, UniProt P21583 partial chain). Description: SEC; calibrated SE-HPLC, TSK-gel G3000 SWXL, 0.1 M Na2HPO4, 0.1 M Na2SO4 pH 7.2, 0.6 mL/min, 22 °C; 10 µg of each protein loaded. The note with it: both partners purified. In general terms: Size exclusion chromatography separates by hydrodynamic size, large species first.
Assay [2] concerns the target T1, c-kit (extracellular domain fused to the Fc region of human IgG1) (UniProt P10721 partial chain).
T1 construct: c-kit, the SCF receptor; extracellular domain; Chimeric protein held on protein G by its Fc region; also called SCF receptor; source: bought: Abcam
The assay can be described thus: total internal reflection ellipsometry (TIRE); receptor-Fc held by its Fc region on protein G immobilised covalently on an 11-MUA monolayer on gold; 10 µg/mL of each protein in PBS pH 7.4; standard fully reversible Langmuir kinetics model. As to conditions: both partners purified.

T1 sequence (P10721 26-524): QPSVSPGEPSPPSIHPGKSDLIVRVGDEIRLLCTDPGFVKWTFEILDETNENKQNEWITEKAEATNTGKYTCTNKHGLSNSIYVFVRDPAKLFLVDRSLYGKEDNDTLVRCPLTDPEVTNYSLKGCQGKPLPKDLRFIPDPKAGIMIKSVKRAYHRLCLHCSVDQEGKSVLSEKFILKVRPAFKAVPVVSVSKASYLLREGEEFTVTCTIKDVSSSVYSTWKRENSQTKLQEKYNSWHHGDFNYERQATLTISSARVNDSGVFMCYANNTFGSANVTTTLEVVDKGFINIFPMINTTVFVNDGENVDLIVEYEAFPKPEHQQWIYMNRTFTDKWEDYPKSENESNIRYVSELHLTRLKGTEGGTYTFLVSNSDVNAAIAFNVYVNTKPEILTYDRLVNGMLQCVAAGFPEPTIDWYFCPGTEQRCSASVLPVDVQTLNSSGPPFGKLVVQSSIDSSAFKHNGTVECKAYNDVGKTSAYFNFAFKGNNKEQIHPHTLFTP
Sequence of UniProt P21583 (P21583 26-214): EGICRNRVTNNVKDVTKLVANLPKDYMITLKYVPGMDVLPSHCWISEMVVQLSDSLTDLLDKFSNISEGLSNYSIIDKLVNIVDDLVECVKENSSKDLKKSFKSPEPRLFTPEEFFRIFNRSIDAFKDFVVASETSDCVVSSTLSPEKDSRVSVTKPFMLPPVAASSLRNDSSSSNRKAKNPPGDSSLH

B1: SCF monomer (ligand)
chain: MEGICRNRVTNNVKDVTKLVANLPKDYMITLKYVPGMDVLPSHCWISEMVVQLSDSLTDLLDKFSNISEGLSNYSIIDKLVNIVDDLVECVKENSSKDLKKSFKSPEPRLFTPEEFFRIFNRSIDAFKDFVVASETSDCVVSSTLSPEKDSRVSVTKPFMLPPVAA
modifications: E. coli-derived, non-glycosylated; non-covalent homodimer by SE-HPLC. Limits not printed: the printed MW 18,656.49 matches Met + mature […] (precursor […]), consistent with the fusion ma
By stoichiometry N is commonly meant the number of molecules, sites or subunits per partner or assembly. As a reminder, the Kd is a measure of binding affinity in units of concentration. A low value points to tighter binding. For orientation: koff means the first-order rate constant of dissociation. Low values mean a long-lived complex, high ones a short-lived complex. As usually defined, the kon is the rate constant with which the complex forms. As to B1, the “stoichiometry N” value in assay [1] worked out at 2. In assay [2], the Ka is 950000 M⁻¹, the Kd came to 1.04 µM, the koff is 0.0143 s⁻¹ and the kon was determined as 13700 M⁻¹ s⁻¹.
